Measurements from ChEMBL document CHEMBL1201862, “PubChem BioAssay data set” (2004).
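Cells were grown in 96-well plates and exposed to each compound for 48 hours at five concentrations; endpoints were interpolated linearly between bracketing concentrations, or set to the highest concentration if not reached. The concentration for 50% growth inhibition is given as GI50.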 Active and inactive are the calls of the source. No stated cut-off is given here; in the data, active = GI50 up to about 1.1 µM and inactive = higher. Peptide text beside a SMILES is read from it. * marks the point of attachment. Boc = CC(C)(C)OC(=O)*

Tested on: NCI-H322M
Assay: NCI anticancer screen, dose series, 48 h

Row | Compound | GI50
1 | N#CC1([N+](=O)[O-])C=C1c1ccccc1 (stereo unspecified) | inactive: > 100 µM
2 | CC1CC(C)C2OC2(C)C[C@H](C)C(=O)NC(C)C(=O)N(C)[C@H](Cc2c(Br)[nH]c3ccccc23)C(=O)N[C@@H](c2ccc(O)cc2)CC(=O)O1 (stereo partly specified) | active: 0.729 µM
3 | O=C1CC(Cl)c2c(Cl)sc(Cl)c21 (stereo unspecified) | inactive: 15.5 µM
4 | CC(C)(NC1=NCCO1)c1ccccc1 | inactive: > 100 µM
5 | Clc1ccc(/C=C/c2nc(Cl)c(-c3ccc(Cl)cc3)c(Cl)n2)cc1 | inactive: > 100 µM
6 | C#CC1(O)CCC2[C@@H]3CCc4cc(Oc5nc(F)nc(-c6c7ccccc7cn6C)n5)ccc4C3CC[C@@]21C (stereo partly specified) | inactive: > 100 µM
7 | O=C1N/C(=N/N=C\C(O)C(O)C(O)C(O)CO)N/C1=C/c1ccc(Cl)cc1 (stereo unspecified) | inactive: > 100 µM
8 | CC(C)C1CCC/C=C/C=C/C=C/C=C/C(OC2OC(C)C(O)C(N)C2O)CC2OC(O)(CC(O)CC(O)C(O)CCC(=O)O1)CC(O)C2C(=O)O (stereo unspecified) | inactive: > 52.5 µM
9 | O=C(/C=C/c1csc(-c2ccccc2)n1)NCc1ccc(C(=O)NCCc2ccccc2)cc1 | inactive: > 100 µM
10 | CC(=O)Nc1ccc(-c2nnc(SCC(=O)Nc3ccc([N+](=O)[O-])cc3)o2)cc1 | inactive: 22.1 µM
11 | CN(C)CCNC(=O)c1cc(-c2nccn2C)nc2ccccc12 | inactive: > 100 µM
12 | COc1cccc(/C=C/c2cnc3ccccc3n2)c1OC | inactive: > 100 µM
13 | COC(=O)C1=Cc2c(cc(OC)c(OC)c2OC)[C@H](c2ccc(OC)c(OC)c2OC)C1C(=O)OC (stereo partly specified) | inactive: > 100 µM
14 | CCCCn1c(CSc2ccc(Cl)cc2)c(C(=O)OCC)c2cc(OC)c(Br)cc21 | inactive: > 100 µM
15 | CS(=O)(=O)O[C@H]1[C@H](O)c2ccccc2[C@@H]1N=[N+]=[N-] | inactive: > 100 µM
16 | CN(C)CCOC(=O)c1ccc(N)cc1 | inactive: > 100 µM
17 | CC(=O)C1(C)CC(C#N)(C#N)C(C#N)=C1N (stereo unspecified) | inactive: > 100 µM
18 | [N-]=[N+]=Nc1ccc(S(=O)(=O)Oc2cc(OS(=O)(=O)c3ccc(N=[N+]=[N-])cc3)cc(OS(=O)(=O)c3ccc(N=[N+]=[N-])cc3)c2)cc1 | inactive: > 100 µM
19 | COc1cccc(/C=N/n2c(Cc3ccccc3)n[nH]c2=O)c1 | inactive: > 100 µM
20 | COC(=O)C1=Cc2cn(S(=O)(=O)c3ccc(C)cc3)c3cccc(c23)C(C=C(C)C)N1C(C)=O (stereo unspecified) | inactive: > 100 µM
21 | COc1ccccc1NC(=O)NS(=O)(=O)c1ccccc1 | inactive: > 100 µM
22 | O=c1oc2cc(O)ccc2c(O)c1C(c1ccccc1F)c1c(O)c2ccc(O)cc2oc1=O | inactive: > 100 µM
23 | CC1CCC[P+](Cc2ccccc2)(c2ccccc2)CC1 (stereo unspecified) | inactive: > 100 µM

Row | Compound | GI50
24 | CC(=O)Oc1cc2c(n(C)c1=O)-c1ccccc1C2 | inactive: > 100 µM
25 | O=C1/C(=C/c2ccc(Cl)cc2)CCCc2ccccc21 | inactive: 23.3 µM
26 | S=C(Nc1ccccc1)N(/N=C/C=C/c1ccccc1)c1nnc(-c2ccccc2)c(-c2ccccc2)n1 | inactive: 96.2 µM
27 | COc1ccc2c(c1O)[C@@]13C=C(O)C(=O)C=C1[C@@H](C2)N(C)CC3 | inactive: 69.3 µM
28 | CC(N)Cc1ccc(Cl)c(Cl)c1 (stereo unspecified) | inactive: 39.2 µM
29 | CCOC(=O)CCc1c(C)c2c(O)cc(O)cc2oc1=O | inactive: > 100 µM
30 | O=c1c2cc(Br)ccc2nc(-c2ccccc2Cl)n1NCC1(O)OCC(O)C(O)C1O (stereo unspecified) | inactive: > 100 µM
31 | CC(=O)OCC1OC(n2c(C)c(C)cc(C#N)c2=S)C(OC(C)=O)C(OC(C)=O)C1OC(C)=O (stereo unspecified) | inactive: > 100 µM
32 | O=C1C(=CNC(=S)c2ccccc2)C(=O)c2ccccc21 | inactive: 76.7 µM
33 | COc1ccc(NC(=O)CSc2nnc(-c3ccc(/N=C\c4ccc(Cl)cc4)cc3)o2)cc1 | inactive: 31.6 µM
34 | Cn1c2ccccc2c(=NNc2ccccc2C(=O)O)c2ccccc21 | inactive: 19.4 µM
35 | CC(C)c1ccc(/C=C2\CSCC3=C2N=C2SCC(=O)N2C3c2ccc(C(C)C)cc2)cc1 (stereo unspecified) | inactive: > 100 µM
36 | COc1cc(O)c2c(=O)c3ccccc3n(C)c2c1 | inactive: > 100 µM
37 | O=C1CCCC[C@H]1[C@H]1CCC[C@@H]([C@H]2CCCCC2=O)C1=O | inactive: > 100 µM
38 | O=C1C(N2CCN(CCOCCO)CC2)=C(Cl)C(=O)c2ncccc21 | inactive: > 10 µM
39 | Cc1c(Cc2ccccc2)n(C(C)OCCN(OC(=O)Oc2ccccc2)C(=O)Oc2ccccc2)c(=O)[nH]c1=O (stereo unspecified) | inactive: 23.4 µM
40 | CC1(C)CCc2cc3c(-c4ccccc4)cc(=O)oc3cc2O1 | inactive: > 100 µM
41 | Clc1ncnc2c1nc(C#Cc1ccccc1)n2C1CCCCO1 (stereo unspecified) | inactive: 1.67 µM
42 | C#CCn1c(=O)ccn(/C(=C/C(=O)OCC)C(=O)OCC)c1=O | inactive: 36.6 µM
43 | CCOc1ccc(-n2c(=O)n3c(Nc4ccc(Cl)cc4)nc4c(c(=O)n(C)c(=O)n4C)n3c2=O)cc1 | inactive: 34.8 µM
44 | CCOC(=O)c1cc2c([nH]1)c(O)cc1c2ccn1Cc1ccccc1 | inactive: 20.7 µM
45 | NNC(=S)N/N=C/C(Cl)=C(\Cl)C(=O)O | inactive: > 100 µM
46 | Cc1cc2c(c(/C=N/Cc3ccccc3)c1)OC1(C=C2)Oc2ccccc2C(=O)N1C (stereo unspecified) | inactive: 20.7 µM

Row | Compound | GI50
47 | COC(=O)C1=C(CO)C2C=CC1C2 (stereo unspecified) | inactive: > 100 µM
48 | O=C(/C=C/c1ccc(O)c(-c2cc(C(=O)/C=C/c3ccc(O)cc3)c(O)cc2O)c1)c1ccc(O)cc1O [RHUSCHALCONE VI] | inactive: 19.2 µM
49 | COC(=O)C1(C(=O)OC)N=C(C)OC1c1ccccn1 (stereo unspecified) | inactive: > 100 µM
50 | CCOC(=O)C1C(c2ccccc2)=C(c2ccccc2)C(c2ccccc2)=C1c1ccccc1 | inactive: 82.2 µM
51 | CC1=CC=C2C(C)(C)CC[C@@H]3OC(=O)[C@H]1[C@]23C | inactive: > 100 µM
52 | COC(=O)C(CC(=O)Nc1ccc(Cl)c(Cl)c1)C(=O)C(=O)Nc1ccc(Cl)c(Cl)c1 (stereo unspecified) | inactive: > 100 µM
53 | Nc1nc(OCC2CCCCC2)c2nc[nH]c2n1 | inactive: 21.2 µM
54 | COc1ccc(-c2cc(=O)c3cc(C)c(C)c(C(=O)O)c3o2)cc1 | inactive: > 100 µM
55 | O=C(/C=C/c1cc2ccccc2o1)N1CCN(c2ccccn2)CC1 | inactive: > 100 µM
56 | Cc1nc(-n2nc(-c3ccccc3)cc2-c2ccccc2)sc1C(=O)/C=C/c1ccccc1 | inactive: > 100 µM
57 | COc1cc2c(/C=C3/C(=O)N(C)c4ccc(O)cc43)c(Cl)[nH]c2cc1C | active: 0.879 µM
58 | N#Cc1c(Cl)cccc1Oc1ccc(S(=O)(=O)/N=C(\NN)Nc2ccc(Cl)cc2)cc1 | inactive: 32.4 µM
59 | O=P1(Cc2ccccc2)c2ccccc2-c2ccccc21 | inactive: 14.7 µM
60 | C/C(=N\N)C(CN1CCCCC1)C(c1ccccc1)c1c(O)c2ccccc2oc1=O (stereo unspecified) | inactive: > 100 µM
61 | COc1cc(C(O)CCBr)c(OC)cc1C (stereo unspecified) | inactive: 31.9 µM
62 | C/C(CCn1[nH]c(=O)ccc1=O)=N\O | inactive: > 100 µM
63 | O=c1[nH][nH]c(=S)c(=O)[nH]1 | inactive: > 100 µM
64 | CSCCC(NCc1c(O)ccc2ccc(=O)oc12)C(=O)O (stereo unspecified) | inactive: > 100 µM
65 | O=C(O)Cc1ccc2c(c1)/C(=C1/Nc3ccccc3C1=O)C(=O)N2 | inactive: 24.4 µM
66 | C=C(C)[C@@H]1CC[C@]2(C(=O)OC)CC[C@]3(C)[C@H](CC[C@@H]4[C@@]5(C)CC[C@H](O)C(C)(C)[C@@H]5CC[C@]43C)[C@@H]12 [METHYL BETULINATE] | inactive: 19.5 µM
67 | CC(C)/C(Cl)=N\OC(=O)Nc1cccc(F)c1 | inactive: 12.8 µM
68 | Cc1ccc(-c2cc(C(F)(F)F)nn2-c2ccc(S(N)(=O)=O)cc2)cc1 [CELECOXIB] | inactive: 18.2 µM
69 | Cc1ccc(NC(=O)CC2C(=O)Nc3ccccc3S2(=O)=O)cc1C (stereo unspecified) | inactive: > 100 µM

Row | Compound | GI50
70 | CS(=O)(=O)OCCn1cnc2nc(NC(=O)c3ccccc3)[nH]c(=O)c21 | inactive: 4.72 µM
71 | COc1c(CCl)cc(-c2cc(=O)c3ccccc3s2)cc1CCl | inactive: > 100 µM
72 | COc1cc2c(cc1OC)C1CN3C(=O)CCC3C(O)C1c1cc(OC)c(OC)cc1-2 (stereo unspecified) | inactive: > 100 µM
73 | O=C(/C=C/c1c(O)ccc2ccccc12)c1ccc2ccccc2c1 | inactive: > 100 µM
74 | [O-][S+](Cc1ccccc1)c1ccccc1Cn1cccc1 (stereo unspecified) | inactive: > 100 µM
75 | CC(C)(C)n1[nH]c(=O)n(C(C)(C)C)c1=O | inactive: > 100 µM
76 | CC(CC(=O)O)(CC(=O)O)C(=O)O | inactive: > 100 µM
77 | COc1ccc(/C=N/NC(=O)c2ccc(O)c(CN(C)C)c2)cc1 | inactive: > 100 µM
78 | O=C(/C=C/C=C/c1ccccc1)c1ccccc1 | inactive: 17.6 µM
79 | CC1CCCC2(CC[N+](C)(CCC[N+](C)(C)C)CC2)C1 (stereo unspecified) | inactive: > 100 µM
80 | Cc1cn(C2CC(n3cc(Cn4cc(I)c(=O)[nH]c4=O)nn3)C(CO)O2)c(=O)[nH]c1=O (stereo unspecified) | inactive: > 100 µM
81 | NC(=S)N/N=C(/CC(=O)c1ccccc1)C(=O)Nc1ccc(Cl)c(Cl)c1 | inactive: 49.9 µM
82 | CCCC(=O)OC1C(C(O)CO)OC2OC(C)(C)OC21 (stereo unspecified) | inactive: > 100 µM
83 | C/N=C(\NC(=S)N(C)C)N(C)C | inactive: > 100 µM
84 | COc1cc(/C=C2\CC3C4CC=C5C[C@@H](O)CC[C@]5(C)C4CC[C@]3(C)\C2=N\O)cc(OC)c1OC (stereo partly specified) | inactive: 17.3 µM
85 | O=C(CNc1ccc(Cl)cc1Cl)Nn1c(-c2ccccc2)nc2ccccc2c1=O | inactive: 15.7 µM
86 | CCN(CC)CCC/N=c1\c2cc(OC)ccc2[nH]c2c([N+](=O)[O-])ccc(NCCCN(CC)CC)c12 | inactive: 1.48 µM
87 | OC(c1ccc(-c2ccccc2)cc1)C(F)(F)c1nc2ccccc2o1 (stereo unspecified) | inactive: 76.2 µM
88 | COC(=O)c1ccccc1CC1Cc2ccc3c(c2C1)CCC3 (stereo unspecified) | inactive: 34.3 µM
89 | O=C(c1ccccc1)c1ccc2c(c1)nc1n2C(c2c(F)cccc2F)SC1 (stereo unspecified) | inactive: 37.8 µM
90 | COC(=O)CNC(=O)C(Cc1ccccc1)NC(=O)C(CCSC)NC(=O)C(Cc1ccc(O)cc1)NC(=O)OC(C)(C)C (stereo unspecified) (Boc-YMFG-OMe; configuration not given here) | inactive: 82.4 µM
91 | CC(C)(C)OC(=O)n1cc(C2CNC(=O)C23CCC(=O)N3Cc2ccccc2)c2ccccc21 (stereo unspecified) | inactive: 22.8 µM
